Consider four molecules from the supplement of paper PMC11741623.

Some of the results follow. Interaction screen of human proteins with wild-type SARS-CoV-2 proteins by split-DHFR complementation in yeast, 1 µg/mL methotrexate. Value = fitness of the pair (three or more lineages) minus that of the viral protein without a human partner, on a scale set by negative (0) and fused positive (1) controls, mean of up to three cultures; higher = more likely to interact. Active = false discovery rate below 0.05 (one-sided t-test) in at least one culture. Nearly all pairs are not hits, and differences among them are mostly noise (correlation between cultures about 0.3); most hits were seen in one culture only. Human sequences are the Swiss-Prot entries looked up by gene name; the clone may be another isoform. NSP2 values were corrected by the authors for a growth advantage. Listed are human proteins with a hit and a random twelfth of the others.

The labels stand for the following.
B1: GBP3, Q9H0R5 (protein)
chain: MAPEIHMTGPMCLIENTNGELVANPEALKILSAITQPVVVVAIVGLYRTGKSYLMNKLAGKNKGFSLGSTVKSHTKGIWMWCVPHPKKPEHTLVLLDTEGLGDVKKGDNQNDSWIFTLAVLLSSTLVYNSMGTINQQAMDQLYYVTELTHRIRSKSSPDENENEDSADFVSFFPDFVWTLRDFSLDLEADGQPLTPDEYLEYSLKLTQGTSQKDKNFNLPRLCIRKFFPKKKCFVFDLPIHRRKLAQLEKLQDEELDPEFVQQVADFCSYIFSNSKTKTLSGGIKVNGPRLESLVLTYINAISRGDLPCMENAVLALAQIENSAAVQKAIAHYDQQMGQKVQLPAETLQELLDLHRVSEREATEVYMKNSFKDVDHLFQKKLAAQLDKKRDDFCKQNQEASSDRCSALLQVIFSPLEEEVKAGIYSKPGGYCLFIQKLQDLEKKYYEEPRKGIQAEEILQTYLKSKESVTDAILQTDQILTEKEKEIEVECVKAESAQASAKMVEEMQIKYQQMMEEKEKSYQEHVKQLTEKMERERAQLLEEQEKTLTSKLQEQARVLKERCQGESTQLQNEIQKLQKTLKKKTKRYMSHKLKI
B2: IKBIP, Q70UQ0 (protein)
chain: MSEVKSRKKSGPKGAPAAEPGKRSEGGKTPVARSSGGGGWADPRTCLSLLSLGTCLGLAWFVFQQSEKFAKVENQYQLLKLETNEFQQLQSKISLISEKWQKSEAIMEQLKSFQIIAHLKRLQEEINEVKTWSNRITEKQDILNNSLTTLSQDITKVDQSTTSMAKDVGLKITSVKTDIRRISGLVTDVISLTDSVQELENKIEKVEKNTVKNIGDLLSSSIDRTATLRKTASENSQRINSVKKTLTELKSDFDKHTDRFLSLEGDRAKVLKTVTFANDLKPKVYNLKKDFSRLEPLVNDLTLRIGRLVTDLLQREKEIAFLSEKISNLTIVQAEIKDIKDEIAHISDMN
B3: LPL, P06858 (protein)
chain: MESKALLVLTLAVWLQSLTASRGGVAAADQRRDFIDIESKFALRTPEDTAEDTCHLIPGVAESVATCHFNHSSKTFMVIHGWTVTGMYESWVPKLVAALYKREPDSNVIVVDWLSRAQEHYPVSAGYTKLVGQDVARFINWMEEEFNYPLDNVHLLGYSLGAHAAGIAGSLTNKKVNRITGLDPAGPNFEYAEAPSRLSPDDADFVDVLHTFTRGSPGRSIGIQKPVGHVDIYPNGGTFQPGCNIGEAIRVIAERGLGDVDQLVKCSHERSIHLFIDSLLNEENPSKAYRCSSKEAFEKGLCLSCRKNRCNNLGYEINKVRAKRSSKMYLKTRSQMPYKVFHYQVKIHFSGTESETHTNQAFEISLYGTVAESENIPFTLPEVSTNKTYSFLIYTEVDIGELLMLKLKWKSDSYFSWSDWWSSPGFAIQKIRVKAGETQKKVIFCSREKVSHLQKGKAPAVFVKCHDKSLNKKSG
B4: KLHDC4, Q8TBB5 (protein)
chain: MGKKGKKEKKGRGAEKTAAKMEKKVSKRSRKEEEDLEALIAHFQTLDAKRTQTVELPCPPPSPRLNASLSVHPEKDELILFGGEYFNGQKTFLYNELYVYNTRKDTWTKVDIPSPPPRRCAHQAVVVPQGGGQLWVFGGEFASPNGEQFYHYKDLWVLHLATKTWEQVKSTGGPSGRSGHRMVAWKRQLILFGGFHESTRDYIYYNDVYAFNLDTFTWSKLSPSGTGPTPRSGCQMSVTPQGGIVVYGGYSKQRVKKDVDKGTRHSDMFLLKPEDGREDKWVWTRMNPSGVKPTPRSGFSVAMAPNHQTLFFGGVCDEEEEESLSGEFFNDLYFYDATRNRWFEGQLKGPKSEKKKRRRGRKEEPEGGSRPACGGAGTQGPVQLVKEVVAEDGTVVTIKQVLTAPGSAGQPRSEDEDSLEEAGSPAPGPCPRSNAMLAVKHGVLYVYGGMFEAGDRQVTLSDLHCLDLHRMEAWKALVEMDPETQEWLEETDSEEDSEEVEGAEGGVDDEDSGEESGAED

One assay concerns the target SARS-CoV-2 M. In words: yeast fitness gain over the viral ORF with no human partner (scaled fitness); higher = more likely to interact. The procedure:
(§1)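 Split mouse DHFR complementation in pooled diploid yeast: human ORFeome clones carry one fragment and viral ORFs the other; barcoded lineages compete in 1 µg/mL methotrexate and fitness is read by barcode sequencing in up to three cultures.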
Regarding B1, the yeast fitness gain was inactive: -0.0431.
Consider B2, for which the yeast fitness gain is inactive: -0.119.
Turning to B3, the yeast fitness gain is inactive: -0.0701.
On to B4, for which the yeast fitness gain was inactive: -0.147.

A further assay concerns the target SARS-CoV-2 NSP10. The assay is described as above. On the procedure:
as §1
In the case of B1, the yeast fitness gain is inactive: -0.163.
Still for that read-out and setting: the same measure for B3: inactive: 0.0376; for B4: inactive: -0.0439.

For the next assay, the target named is SARS-CoV-2 NSP12. The description is as above. The procedure: as §1
As for B1, the yeast fitness gain is inactive: -0.000472.
Same read-out and setting: with B3 the figure was inactive: -0.0983; with B4, inactive: 0.0326.

A further assay concerns the target SARS-CoV-2 NSP13. The description is as above. The procedure: as §1
For B1, the yeast fitness gain is inactive: -0.0942.
With B2, the yeast fitness gain is inactive: -0.316.
For B3, the yeast fitness gain is inactive: 0.0614.
Turning to B4, the yeast fitness gain was inactive: -0.00396.

The target of a further assay is SARS-CoV-2 NSP15. Described as above. On the procedure:
as §1
In the case of B1, the yeast fitness gain is inactive: 0.00854.

A further assay concerns the target SARS-CoV-2 NSP16. The description is as above. The procedure: as §1
For the molecule B1, the yeast fitness gain is inactive: 0.0326.
As to B4, the yeast fitness gain was inactive: -0.1.

The target in a further assay is SARS-CoV-2 NSP2. Described as above. On the procedure: as §1
Turning to B1, the yeast fitness gain is inactive: -0.204.
On the same count and under the same terms, with B2 the figure was inactive: -0.246.
The same measure, in the same setting: the same measure for B3: inactive: -0.34.
In the case of B4, the yeast fitness gain is inactive: 0.127.

The target of a further assay is SARS-CoV-2 NSP5. The assay is described as above. The procedure: as §1
With B1, the yeast fitness gain is inactive: 0.0136.
Consider B2, for which the yeast fitness gain is inactive: 0.00655.
In the case of B3, the yeast fitness gain is inactive: -0.0325.
Regarding B4, the yeast fitness gain is inactive: -0.0146.

The next assay has as its target SARS-CoV-2 NSP6. Described as above. The procedure: as §1
For B1, the yeast fitness gain is inactive: -0.101.
For B3, the yeast fitness gain is inactive: 0.0177.
With B4, the yeast fitness gain is inactive: -0.0156.

For a further assay, the target named is SARS-CoV-2 NSP7. The description is as above. On the procedure: as §1
B1: the yeast fitness gain is inactive: 0.00893.
Still for that read-out and setting: with B4 the figure was inactive: 0.0633.

Another assay has as its target SARS-CoV-2 NSP8. The assay is described as above. On the procedure:
as §1
Take B1: the yeast fitness gain was inactive: -0.185.
With B2, the yeast fitness gain is inactive: 0.1.
Still for that read-out and setting: with B4 the figure was inactive: 0.0395.

A further assay addresses SARS-CoV-2 NSP9. Described as above. The procedure:
as §1
Consider B1, for which the yeast fitness gain is inactive: -0.241.
Same read-out and setting: the same measure for B3: inactive: -0.00888.
Same read-out and setting: with B4 the figure was inactive: -0.234.

In a further assay the target is SARS-CoV-2 ORF10. Described as above. On the procedure: as §1
Turning to B1, the yeast fitness gain is inactive: -0.074.
For the molecule B3, the yeast fitness gain was inactive: 0.0201.
On the same count and under the same terms, with B4 the figure was inactive: -0.0376.

The target in a further assay is SARS-CoV-2 ORF3A. Described as above. The procedure:
as §1
Turning to B1, the yeast fitness gain was inactive: -0.0664.
The same measure, in the same setting: the same measure for B3: inactive: -0.0475.
With B4, the yeast fitness gain was inactive: 0.0951.

The next assay deals with SARS-CoV-2 ORF3B. Described as above. The procedure:
as §1
Regarding B1, the yeast fitness gain is inactive: 0.0529.
On the same count and under the same terms, the same measure for B3: inactive: 0.0116; for B4: inactive: 0.0524.

The next assay deals with SARS-CoV-2 ORF6. Described as above. The procedure: as §1
Consider B1, for which the yeast fitness gain is inactive: -0.0621.
Still for that read-out and setting: with B2 the figure was inactive: -0.0786; with B3, inactive: -0.0198.
In the case of B4, the yeast fitness gain is inactive: -0.0199.

For the next assay, the target named is SARS-CoV-2 ORF7A. The description is as above. On the procedure: as §1
As for B1, the yeast fitness gain was inactive: -0.0835.
Still for that read-out and setting: the same measure for B3: inactive: 0.0256.
On the same count and under the same terms, with B4 the figure was inactive: -0.0206.

In a further assay the target is SARS-CoV-2 ORF7B. The assay is described as above. On the procedure: as §1
For the molecule B1, the yeast fitness gain is inactive: 0.127.
As to B3, the yeast fitness gain is inactive: 0.0939.
Still for that read-out and setting: the same measure for B4: inactive: 0.0385.

Another assay addresses SARS-CoV-2 ORF8. The assay is described as above. The procedure:
as §1
For the molecule B1, the yeast fitness gain was inactive: 0.0298.
In the case of B3, the yeast fitness gain is inactive: -0.0531.
On the same count and under the same terms, with B4 the figure was inactive: 0.0017.

The target of another assay is SARS-CoV-2 ORF9B. The description is as above. The procedure: as §1
B1: the yeast fitness gain was inactive: -0.0154.
Turning to B2, the yeast fitness gain is inactive: 0.0498.
Same read-out and setting: with B3 the figure was inactive: -0.0402; with B4, inactive: -0.0253.

A further assay deals with SARS-CoV-2 ORF9Bwu (the 73-codon ORF). Described as above. On the procedure: as §1
As for B1, the yeast fitness gain is inactive: 0.0323.
On the same count and under the same terms, the same measure for B2: inactive: 0.023; for B3: inactive: 0.0554; for B4: inactive: -0.141.

Another assay has as its target SARS-CoV-2 S. The assay is described as above. On the procedure: as §1
Take B1: the yeast fitness gain is inactive: 0.0469.
Turning to B4, the yeast fitness gain is inactive: -0.0719.

The next assay has as its target SARS-CoV-2 NSP14. The assay is described as above. The procedure: as §1
For the molecule B2, the yeast fitness gain was inactive: -0.13.
The same measure, in the same setting: the same measure for B3: inactive: 0.00223.

The target in the next assay is SARS-CoV-2 N. Described as above. On the procedure: as §1
Regarding B3, the yeast fitness gain is inactive: 0.0179.
For the molecule B4, the yeast fitness gain was inactive: -0.169.

In another assay the target is SARS-CoV-2 NSP1. Described as above. The procedure: as §1
B3: the yeast fitness gain is inactive: -0.06.
As for B4, the yeast fitness gain was inactive: 0.0742.
